Laboratory results as given in PubChem BioAssay AID1345083 (National Center for Advancing Translational Sciences (NCATS), 2018).
In all, about 94,000 compounds went through this assay and about 6,200 (6.6%) were called active. The shares of active, inactive and inconclusive entries below differ from those in the screen. Calls come from the whole dose curve; as a rule, active = well fitted inhibition curve with a large enough effect; inconclusive = small, poorly fitted or top-dose-only effect; inactive = flat fitted curve, though single readings scatter. Potencies beside an inconclusive call are fits to weak or partial responses and may not hold up.

Assay: Cytotoxic Profiling in HEK 293 Cell Line of Diverse Libraries Using Quantitative High-Throughput Screening; note: nearly all actives have a fitted effect of over 60% in size
Conditions: HEK 293 viability, ATP luminescence (CellTiter-Glo), 48-72 h; series mostly up to 115 µM
Summary of the method: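 HEK 293 seeded at 250 cells/well receive compound via pintool. After 48 or 72 hr at 37 degree Celsius, 5% CO2 and 95% humidity, CellTiter-Glo is dispensed and luminescence read following 10 min at room temperature.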
Potency is the fitted concentration of half-maximal effect; tags give direction and shape of the fitted curve.

Row | SMILES | Potency
1 | CN(CCc1noc(C2CN(Cc3ccc(F)c(F)c3)C2)n1)C(=O)C1CC1 | inconclusive: 79.4 µM [inhibitor, partial curve, poor fit]
2 | COc1ncc(CN2CC[C@@H]3OCC(=O)N(Cc4cccc(C(N)=O)c4)[C@H]3CC2)cn1 | inactive
3 | O=C(NCCc1ccccc1F)c1nc2sccn2c1-c1ccc(F)cc1 | inconclusive: 44.7 µM [inhibitor, partial curve, poor fit]
4 | O=C1COc2ccc(-c3ccoc3)nc2CN1Cc1ccccc1 | inconclusive: 79.4 µM [inhibitor, partial curve, poor fit]
5 | O=C1CS(=O)C2(CCN(S(=O)(=O)Cc3ccccc3)CC2)N1CC1CC1 (centres undefined) | inactive
6 | O=C1NCc2ccccc2CC12CCCCN2Cc1cccc(F)c1 (centres undefined) | inconclusive: 56.2 µM [inhibitor, partial curve, poor fit]
7 | Cc1ccc(Nc2ccnc(N3CCCC(C(=O)N4CCN(c5ncccn5)CC4)C3)n2)cc1 (centres undefined) | active: 20 µM
8 | O=C1c2c(nc(COc3cccc(N4CCOCC4)c3)n2Cc2ccccc2)NCCN1CC1CC1 | inconclusive: 63.1 µM [inhibitor, partial curve, poor fit]
9 | Cc1c(F)cccc1NC(=O)N1CCCC1c1nncn1-c1ccccc1 (centres undefined) | inactive
10 | CCCCN(Cc1ccsc1)C(=O)c1cnc(Nc2ccccc2)nc1 | inconclusive: 56.2 µM [inhibitor, partial curve, poor fit]
11 | O=C1CC(c2ccccc2)N(C(=O)CNC(=O)Cn2c(=O)oc3ccccc32)CCCCCCN1 (centres undefined) | inactive
12 | CC(=O)N1CCCC(C(=O)N2CCC(N3CCOC3=O)CC2)C1 (centres undefined) | inactive
13 | COc1ccc(C(=O)NCC2Cn3cccc3C(=O)N2C)cc1OC (centres undefined) | inactive
14 | O=C(C1CC1)N1CCC(n2cc(-c3nc(-c4ccccc4)no3)nn2)CC1 | inconclusive: 50.1 µM [inhibitor, partial curve, poor fit]
15 | COc1ccc(N2CC3CCC(C2)N3Cc2cccc(-c3ccc(F)cc3F)c2)cc1 | inconclusive: 79.4 µM [inhibitor, partial curve, poor fit]
16 | O=C(NCc1cccs1)c1nc2sccn2c1-c1cccnc1 | inactive
17 | CC1CCCN(C(=O)Cn2ccn3nc4c(c3c2=O)CCCC4)C1 (centres undefined) | inconclusive: 89.1 µM [inhibitor, single point]
18 | O=C(NCc1ccc(F)cc1)[C@@H]1C[C@@H](c2ccc(F)cc2)N([S+](=O)([O-])c2ccccc2)C1 | inconclusive: 22.4 µM [inhibitor, full curve, poor fit]
19 | COC(=O)C1=CN(CC(=O)Nc2c(C)cc(C)cc2C)S(=O)(=O)N=C1C | inconclusive: 89.1 µM [inhibitor, single point]
20 | Cc1nc(C2CC(O)C2)cc(N2CCC(c3nc(C(C)C)no3)CC2)n1 (centres undefined) | inconclusive: 22.4 µM [inhibitor, full curve, poor fit]
21 | CN(C)CC1(O)CCC2(CCN(C(=O)CCCc3ccccc3)CC2)CC1 | inconclusive: 56.2 µM [inhibitor, partial curve, poor fit]
22 | CN1C[C@@H](NC(=O)Nc2ccccc2)C[C@H]1c1nc(-c2ccc(Cl)cc2)no1 | inconclusive: 70.8 µM [inhibitor, partial curve]

Row | SMILES | Potency
23 | COc1ccc(CN2CCC(C3CCNC3)CC2)c(OC)c1 (centres undefined) | inactive
24 | C#CCNC(=O)[C@H]1C[C@@H](O)[C@H](O)[C@@H]2N=C(Nc3cccc4ccccc34)S[C@@H]21 | inactive
25 | CN(C)C[C@@H]1CN(C)C[C@H]1NC(=O)NCc1ccc(OC(F)(F)F)cc1 | inconclusive: 79.4 µM [inhibitor, partial curve, poor fit]
26 | O=C(c1cc(C2CC2)[nH]n1)N(Cc1ccc2c(c1)OCO2)C1CC1 | inconclusive: 35.5 µM [inhibitor, partial curve, poor fit]
27 | COc1cccc(NC(=O)c2cc(-c3ccccc3C(F)(F)F)nc3c2cnn3C)c1 | active: 22.4 µM
28 | O=C1Cc2c(-c3ccccc3Oc3ccccc3)n[nH]c2CN1CCc1ccncc1 | inconclusive: 112 µM [inhibitor, partial curve, poor fit]
29 | CNCC(=O)N1CCCC(N2CCN(Cc3ccc4c(c3)OCO4)CC2)C1 (centres undefined) | inactive
30 | Cc1cnc(C(=O)N2CCC3(CC2)C(=O)N(c2cccc(F)c2)C3c2ccccc2)cn1 (centres undefined) | inconclusive: 44.7 µM [inhibitor, partial curve]
31 | O=C(c1nc2ncccn2n1)N1CCCn2cc(-c3ccccc3)nc21 | inconclusive: 100 µM [inhibitor, single point]
32 | CS(=O)(=O)N(Cc1cccnc1)C1CN(C(=O)C2CCCCC2)C1 | inactive
33 | Cn1cc(CN[C@H]2C[C@H]3C(=O)NC[C@@H](CCC(=O)N4CCc5ccccc54)N3C2)c2ccccc21 | inconclusive: 89.1 µM [inhibitor, single point]
34 | CN(C)c1ccc(C(=O)N2CCCN(c3cc(-c4ccc(Cl)cc4)[nH]n3)CC2)cc1 | inconclusive: 39.8 µM [inhibitor, partial curve, poor fit]
35 | CC[C@H]1CN(C(C)=O)CC[C@H]1CC(=O)Nc1nccs1 | active: 112 µM
36 | CN(C)c1nccnc1OC1CCN(S(=O)(=O)c2ccccc2)C1 (centres undefined) | inconclusive: 89.1 µM [inhibitor, single point]
37 | Cn1ccc2c(C(=O)NCc3cccnc3)nc(-c3ccc(N4CCOCC4)cc3)cc21 | active: 112 µM
38 | O=C1CC(c2ccccc2)N(Cc2ccncc2)CCCN(C(=O)CCc2ccccc2)CCN1 (centres undefined) | inconclusive: 89.1 µM [inhibitor, single point]
39 | COc1ccc(C(=O)N2CC(c3nnc(C(C)C)o3)C3(CCOCC3)C2)cc1OC (centres undefined) | inactive
40 | COC1CN(c2cccc(F)c2)C12CCN(C(=O)NCCc1ccccc1)CC2 (centres undefined) | active: 50.1 µM
41 | COc1ccccc1CNC(=O)C1CCCN(Cc2cccc(-c3ccc(F)cc3F)c2)C1 (centres undefined) | inconclusive: 56.2 µM [inhibitor, partial curve, poor fit]
42 | Cn1ncc2c(C(=O)NC3CCCCC3)cc(-c3ccccc3C(F)(F)F)nc21 | inconclusive: 39.8 µM [inhibitor, full curve, poor fit]
43 | Cc1ccc(S(=O)(=O)N[C@H]2C[C@@H](c3nc(-c4ccc5c(c4)OCO5)no3)N(C)C2)cc1 | inconclusive: 39.8 µM [inhibitor, full curve, poor fit]
44 | FC(F)(F)c1ccc(CN2CCn3c(nnc3C3CCCNC3)C2)cc1 (centres undefined) | inconclusive: 89.1 µM [inhibitor, single point]

Row | SMILES | Potency
45 | CCN1CC(c2ccccc2)CC2(CCN(C(=O)N3CCCC3)CC2)C1 (centres undefined) | inactive
46 | COc1cccc(C(=O)NC2CCN(c3cc(-c4ccccc4)[nH]n3)CC2)c1OC | inconclusive: 44.7 µM [inhibitor, partial curve, poor fit]
47 | O=C(COc1ccc(F)cc1)Nc1ccc(-c2nnc3n2CCCC3)cc1 | inactive
48 | C[S+](=O)([O-])N1CC2(Cc3ccccc3N(C(=O)Cc3ccc(F)cc3)C2)C1 | inconclusive: 50.1 µM [inhibitor, partial curve, poor fit]
49 | COc1ccccc1CN1CC(c2noc(-c3cc(C)cc(C)c3)n2)CC1=O (centres undefined) | active: 44.7 µM
50 | O=C(NCCc1ccccn1)c1ccc(-c2nnc3ccc(NC(=O)C4CCC4)cn23)cc1 | inconclusive: 50.1 µM [inhibitor, partial curve, poor fit]
51 | CC(C)(C)c1ccc(CCCc2nc(C3CCOC3)no2)cc1 (centres undefined) | inconclusive: 50.1 µM [inhibitor, partial curve, poor fit]
52 | O=C(NC1CCCCC1)N1CCCCC1c1noc(COCC2CC2)n1 (centres undefined) | inactive
53 | c1ccc(-c2ccc3ncc(Nc4ncccn4)n3n2)cc1 | inconclusive: 126 µM [inhibitor, partial curve, poor fit]
54 | CCN1CCN(c2ccc(-c3cccc(N)c3)nn2)CC1 | inconclusive: 79.4 µM [inhibitor, single point]
55 | O=C1CCN(C(=O)C2CCCC2)CCCC(c2nc(-c3ccccc3)no2)CCN1 (centres undefined) | inconclusive: 89.1 µM [inhibitor, single point]
56 | COc1ccccc1Nc1ccnc(N2CCCC(C(=O)NC3CCOC3)C2)n1 (centres undefined) | inconclusive: 56.2 µM [inhibitor, partial curve, poor fit]
57 | CCC(C)NC(=O)c1cccc(-c2ccc(OC)nn2)c1 (centres undefined) | inconclusive: 126 µM [inhibitor, single point]
58 | COCCn1cnc2ccc(Nc3ccc(C(F)(F)F)cc3)nc2c1=O | inconclusive: 100 µM [inhibitor, partial curve, poor fit]
59 | CCOc1cccc2c1OC[C@@H]1CN(CCOC)C(=O)CCN(C(=O)c3ccccc3)[C@H]21 | inactive
60 | Cc1ccc2c(n1)N(C)[C@H](CO)CCN(C1Cc3ccccc3C1)C2 | inconclusive: 63.1 µM [inhibitor, partial curve]
61 | CCCCN1C(=O)c2ccccc2C(C(=O)NCc2cccnc2)C12CCCCC2 (centres undefined) | inconclusive: 89.1 µM [inhibitor, single point]
62 | CN1C[C@@H](NS(=O)(=O)c2ccc(Cl)cc2)C[C@H]1c1nc(-c2ccncc2)no1 | inconclusive: 79.4 µM [inhibitor, partial curve, poor fit]
63 | O=C(c1cccc(N2CCCC2=O)c1)N1CCCC(O)(CN2CCCC2)C1 (centres undefined) | inconclusive: 89.1 µM [inhibitor, single point]
64 | Cc1ccc(Nc2ccnc(N3CCC(NC(=O)c4ccc(C)cc4)CC3)n2)cc1 | inconclusive: 50.1 µM [inhibitor, partial curve, poor fit]
